{"source": "PubChem BioAssay (Tox21)", "key": {"[1]": {"target": "Progesterone receptor (Homo sapiens) (UniProt P06401)", "sequence (P06401 whole entry, looked up)": "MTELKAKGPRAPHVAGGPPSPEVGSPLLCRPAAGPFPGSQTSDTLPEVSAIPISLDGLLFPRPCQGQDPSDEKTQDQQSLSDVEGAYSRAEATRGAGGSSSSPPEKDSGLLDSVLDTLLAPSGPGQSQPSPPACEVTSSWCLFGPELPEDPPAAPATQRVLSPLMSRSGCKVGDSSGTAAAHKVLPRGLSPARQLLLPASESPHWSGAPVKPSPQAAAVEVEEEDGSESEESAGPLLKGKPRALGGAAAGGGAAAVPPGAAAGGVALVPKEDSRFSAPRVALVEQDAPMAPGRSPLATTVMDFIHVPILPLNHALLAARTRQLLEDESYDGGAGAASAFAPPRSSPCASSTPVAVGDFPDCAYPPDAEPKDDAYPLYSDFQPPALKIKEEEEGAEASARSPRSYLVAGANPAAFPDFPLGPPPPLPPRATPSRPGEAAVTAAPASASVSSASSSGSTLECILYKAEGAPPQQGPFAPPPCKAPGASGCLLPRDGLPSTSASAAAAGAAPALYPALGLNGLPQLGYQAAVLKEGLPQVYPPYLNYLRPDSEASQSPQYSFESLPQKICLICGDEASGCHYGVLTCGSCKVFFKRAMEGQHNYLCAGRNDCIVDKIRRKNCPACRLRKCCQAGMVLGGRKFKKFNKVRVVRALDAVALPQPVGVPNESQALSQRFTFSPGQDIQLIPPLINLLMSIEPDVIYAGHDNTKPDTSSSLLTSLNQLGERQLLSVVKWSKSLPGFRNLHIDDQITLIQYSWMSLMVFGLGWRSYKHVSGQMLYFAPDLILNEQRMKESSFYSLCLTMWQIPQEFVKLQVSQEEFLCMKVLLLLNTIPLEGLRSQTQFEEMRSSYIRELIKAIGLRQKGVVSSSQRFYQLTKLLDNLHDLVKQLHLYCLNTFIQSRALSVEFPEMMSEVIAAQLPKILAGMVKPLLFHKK", "assay": "qHTS assay to identify small molecule agonists of the progesterone receptor (PR) signaling pathway (AID 1346784); note: nearly all actives have a fitted effect of over 30% in size; for activation: % is set by controls: 0 for no effect and ±100 for the full control effect", "conditions": "PR-UAS-bla HEK293T, beta-lactamase FRET ratio, 16 h; activation: at 92.4 µM (top of the series) unless noted", "in_short": "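The screen uses PR-UAS-bla HEK 293T cells in charcoal-stripped serum (2%). Compounds are applied for 16 hr at 37C after a 6 hr pre-incubation, and reporter activity is detected with a FRET beta-lactamase substrate after 2 hr at room temperature.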"}, "[2]": {"assay": "qHTS assay to identify small molecule agonists of the TGF-beta/Smad signaling pathway (AID 1346859; active = well fitted activation curve with a large enough effect in the signal ratio in the repeat runs, not every such curve was filed as active; inconclusive = weak or mixed curves; the % refers to the signal ratio; for activation: % is set by controls: 0 for no effect and ±100 for the full control effect)", "conditions": "SBE-bla HEK293T, TGF-beta/Smad beta-lactamase reporter, 5 h; activation: at 76.8 µM (top of the series) unless noted", "in_short": "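Dual-wavelength fluorescence (460/530 nm emission) quantified beta-lactamase expression under the Smad binding element in HEK 293T cells following 5 hr compound treatment at 37 C.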"}, "[3]": {"target": "Progesterone receptor (Homo sapiens) (UniProt P06401)", "assay": "qHTS assay to identify small molecule antagonists of the progesterone receptor (PR) signaling pathway (AID 1346795; active = well fitted inhibition curve with a large enough effect in the signal ratio in the repeat runs, not every such curve was filed as active; inconclusive = weak or mixed curves; the % refers to the signal ratio; for activity change, negative = inhibition: % is set by controls: 0 for no effect and ±100 for the full control effect)", "conditions": "PR-UAS-bla HEK293T, beta-lactamase FRET ratio, 16 h; activity change, negative = inhibition: at 92.4 µM (top of the series) unless noted", "in_short": "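After 6 hr plating at 37C in 2% stripped-serum medium, PR-UAS-bla HEK293T cells got compounds, then 1 nM R5020. Sixteen hours later, LiveBLAzer substrate was applied for 2 hr at room temperature and fluorescence was recorded.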"}, "[4]": {"assay": "qHTS assay to identify small molecule agonists of the progesterone receptor (PR) signaling pathway - cell viability counter screen (AID 1346799); note: nearly all actives have a fitted effect of over 45% in size", "in_short": "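Viability was scored by ATP luminescence (CellTiter-Glo, 30 min, room temperature) in the same wells used for the reporter readout, after 16 hr compound exposure of PR-UAS-bla HEK293T cells.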"}, "[5]": {"assay": "qHTS assay to identify small molecule antagonists of the progesterone receptor (PR) signaling pathway - cell viability counter screen (AID 1346798; active = well fitted curve in the direction sought with a large enough effect in the repeat runs; inconclusive = weak or mixed curves; inactive = no such curve, though single readings can be large; an effect the other way counts as inactive or inconclusive; note: nearly all actives have a fitted effect of over 50% in size)", "in_short": "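Viability was determined by ATP-based luminescence (CellTiter-Glo) in PR-UAS-bla HEK293T cells cultured in 2% charcoal-stripped serum and incubated 16 hr with compounds under R5020 stimulation.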"}, "[6]": {"assay": "qHTS assay to identify small molecule antagonists of the TGF-beta/Smad signaling pathway - cell viability counter screen (AID 1346824; active = well fitted curve in the direction sought with a large enough effect in the repeat runs; inconclusive = weak or mixed curves; inactive = no such curve, though single readings can be large; an effect the other way counts as inactive or inconclusive; note: nearly all actives have a fitted effect of over 50% in size)", "in_short": "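SBE-bla HEK 293T cells were plated overnight at 37 C, then given compounds in DMSO plus TGF-beta1 (added as 0.25 ng/mL solution) for 5 hr. After the bla read, CellTiter-Glo was added to the same wells and luminescence read after 30 min at room temperature.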"}, "[7]": {"assay": "qHTS assay to identify small molecule agonists of the TGF-beta/Smad signaling pathway - cell viability counter screen (AID 1346829; active = well fitted curve in the direction sought with a large enough effect in the repeat runs; inconclusive = weak or mixed curves; inactive = no such curve, though single readings can be large; an effect the other way counts as inactive or inconclusive; note: nearly all actives have a fitted effect of over 45% in size)", "in_short": "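CellTiter-Glo luminescence readout; SBE-bla HEK 293T cells, overnight plating, compound 5 hr at 37 C/5% CO2, then bla substrate 2 hr RT, then CellTiter-Glo 30 min RT.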"}}, "note": "Where “and” joins values, the source holds several entries; their conditions need not be identical. Equal values may be shown once. This list was built around the results that the source calls inconclusive (neither active nor inactive); the mix of calls is not that of the screen. Potencies beside an inconclusive call are fits to weak or partial responses and may not hold up. Calls of active or inactive are those of the source. Unless noted, calls come from the whole dose curve. Potency is the fitted concentration of half-maximal effect; tags give direction and shape of the fitted curve or compound fluorescence and quenching."}
{"smiles": "O=P(O)(O)OCC(O)CO", "note": "(configuration not stated)", "values": [{"measurement": "Potency", "setting": "[1]", "result": "inactive"}, {"measurement": "Potency", "setting": "[2]", "result": "inactive"}]}
{"smiles": "C1CCN(CN2CCCCC2)CC1", "values": [{"measurement": "Potency", "setting": "[3]", "result": "inactive"}]}
{"smiles": "CCC(C)N(C)C(=O)c1cc2ccccc2c(-c2ccccc2Cl)n1", "note": "(configuration not stated)", "values": [{"measurement": "activity change, negative = inhibition", "setting": "[3]", "result": "inconclusive: -49.8% [at 42.5 µM]"}]}
{"smiles": "Clc1cc(Cl)c(Cl)nc1Cl", "values": [{"measurement": "activity change, negative = inhibition", "setting": "[3]", "result": "inconclusive: 4.94%"}]}
{"smiles": "C[Si](C)(CCCN)O[Si](C)(C)CCCN", "values": [{"measurement": "Potency", "setting": "[1]", "result": "inactive"}, {"measurement": "Potency", "setting": "[4]", "result": "inactive"}]}
{"smiles": "CCCCC(CC)C(=O)O", "note": "(configuration not stated)", "values": [{"measurement": "activation", "setting": "[1]", "result": "inconclusive: 26.5% [at 19 µM]"}, {"measurement": "Potency", "setting": "[5]", "result": "inactive"}, {"measurement": "Potency", "setting": "[4]", "result": "inconclusive: 1.39 µM [cytotoxic, single point] and inconclusive: 864 nM [cytotoxic, single point]"}]}
{"smiles": "Oc1cccc2cc3cccc(O)c3c(O)c12", "values": [{"measurement": "activity change, negative = inhibition", "setting": "[3]", "result": "inconclusive: -18.5%"}]}
{"smiles": "CN1CCN2c3ccccc3Cc3ccccc3C2C1", "note": "(configuration not stated)", "values": [{"measurement": "Potency", "setting": "[3]", "result": "inconclusive: 10.6 µM [falling, full curve]"}]}
{"smiles": "OCC1CCCO1", "note": "(configuration not stated)", "values": [{"measurement": "Potency", "setting": "[3]", "result": "inactive"}]}
{"smiles": "Nc1nc(Cl)cc(Cl)n1", "values": [{"measurement": "Potency", "setting": "[1]", "result": "inactive"}, {"measurement": "Potency", "setting": "[4]", "result": "inconclusive: 6.86 µM [cytotoxic, single point]"}, {"measurement": "Potency", "setting": "[2]", "result": "inconclusive: 49 µM [rising, single point]"}]}
{"smiles": "N#Cc1ccc(C(=O)O)cc1", "values": [{"measurement": "Potency", "setting": "[1]", "result": "inactive"}, {"measurement": "Potency", "setting": "[5]", "result": "inconclusive: 48.6 µM [cytotoxic, partial curve, poor fit]"}, {"measurement": "Potency", "setting": "[4]", "result": "inconclusive: 68.6 µM [cytotoxic, single point]"}]}
{"smiles": "CC1=CC2C3CC(C=C3C)C2C1", "note": "(configuration not stated)", "values": [{"measurement": "Potency", "setting": "[3]", "result": "inactive"}]}
{"smiles": "C[N+](C)(C)CCCCCC[N+](C)(C)C", "values": [{"measurement": "Potency", "setting": "[1]", "result": "inactive"}, {"measurement": "Potency", "setting": "[2]", "result": "inactive"}]}
{"smiles": "O=Cc1c2ccccc2c(Cl)c2ccccc12", "values": [{"measurement": "activity change, negative = inhibition", "setting": "[3]", "result": "inconclusive: -21.7% [at 42.5 µM]"}]}
{"smiles": "C[C@@H]1C[C@H]2[C@@H]3CCC4=CC(=O)C=C[C@]4(C)[C@@]3(F)[C@@H](O)C[C@]2(C)[C@@]1(O)C(=O)CO", "values": [{"measurement": "Potency", "setting": "[1]", "result": "inconclusive: 13.9 µM"}, {"measurement": "Potency", "setting": "[5]", "result": "inconclusive: 43.9 µM [rising, partial curve, poor fit]"}, {"measurement": "Potency", "setting": "[4]", "result": "inconclusive: 11 µM [rising, full curve]"}]}
{"smiles": "c1ccc2c(c1)c1cccc3ccc4cccc2c4c31", "values": [{"measurement": "Potency", "setting": "[1]", "result": "inactive"}, {"measurement": "Potency", "setting": "[5]", "result": "inactive"}, {"measurement": "Potency", "setting": "[2]", "result": "inconclusive: 61.2 µM [activator, single point]"}]}
{"smiles": "c1ccc2c(c1)Oc1ccccc1S2", "values": [{"measurement": "Potency", "setting": "[3]", "result": "inactive"}]}
{"smiles": "Cc1ccc(-c2ccccc2)cc1", "values": [{"measurement": "Potency", "setting": "[3]", "result": "inactive"}]}
{"smiles": "Cc1ccc(N)cc1S(=O)(=O)O", "values": [{"measurement": "Potency", "setting": "[3]", "result": "inactive"}]}
{"smiles": "O=C(O)C(O)[C@H](O)[C@@H](O)[C@H](O)[C@H](O)CO", "note": "(some centres not stated)", "values": [{"measurement": "activation", "setting": "[1]", "result": "inconclusive: -0.551%"}, {"measurement": "Potency", "setting": "[5]", "result": "inconclusive: 61.8 µM [cytotoxic, partial curve]"}, {"measurement": "Potency", "setting": "[4]", "result": "active: 49.1 µM"}]}
{"smiles": "Cc1ccc2oc(=O)ccc2c1", "values": [{"measurement": "activity change, negative = inhibition", "setting": "[3]", "result": "inconclusive: -5.16%"}]}
{"smiles": "Nc1nc(=S)c2[nH]cnc2[nH]1", "values": [{"measurement": "activation", "setting": "[1]", "result": "inconclusive: 4.85% [at 42.5 µM]"}, {"measurement": "Potency", "setting": "[5]", "result": "inconclusive: 53.1 µM [cytotoxic, partial curve]"}, {"measurement": "Potency", "setting": "[4]", "result": "active: 4.73 µM and inconclusive: 2.73 µM [cytotoxic, full curve, poor fit] and inconclusive: 3.35 µM [cytotoxic, single point]"}, {"measurement": "Potency", "setting": "[6]", "result": "inconclusive: 952 nM [cytotoxic, full curve] and inconclusive: 3.01 µM [cytotoxic, partial curve, poor fit]"}, {"measurement": "Potency", "setting": "[7]", "result": "inconclusive: 1.69 µM [cytotoxic, full curve] and inconclusive: 1.55 µM [cytotoxic, partial curve, poor fit] and inconclusive: 4.25 µM [cytotoxic, partial curve, poor fit]"}]}
{"smiles": "c1ccsc1", "values": [{"measurement": "Potency", "setting": "[3]", "result": "inactive"}]}
{"smiles": "C[C@]12C=CC(=O)C=C1CC[C@H]1[C@@H]3C[C@@H](O)[C@](O)(C(=O)CO)[C@@]3(C)C[C@H](O)[C@@]12F", "values": [{"measurement": "Potency", "setting": "[1]", "result": "inconclusive: 0.266 µM [falling, full curve, poor fit]"}, {"measurement": "Potency", "setting": "[4]", "result": "inconclusive: 2.98 µM [rising, partial curve]"}, {"measurement": "Potency", "setting": "[6]", "result": "inconclusive: 6.92 µM [cytotoxic, partial curve, poor fit]"}]}
{"smiles": "CC1(C)CCC[C@]2(C)[C@H]3CCO[C@]3(C)CC[C@@H]12", "values": [{"measurement": "Potency", "setting": "[1]", "result": "inactive"}, {"measurement": "Potency", "setting": "[4]", "result": "inactive"}, {"measurement": "Potency", "setting": "[6]", "result": "inactive"}]}
{"smiles": "CN1C(C(=O)Nc2ccccn2)=C(O)c2ccccc2S1(=O)=O", "values": [{"measurement": "activity change, negative = inhibition", "setting": "[3]", "result": "inconclusive: 7.18%"}]}
{"smiles": "CC(C)NCC(O)c1ccc(NS(C)(=O)=O)cc1", "note": "(configuration not stated)", "values": [{"measurement": "Potency", "setting": "[1]", "result": "inconclusive: 61.8 µM [activator, partial curve]"}, {"measurement": "Potency", "setting": "[6]", "result": "inactive"}]}
{"smiles": "C[C@]12C[C@H](O)[C@H]3[C@@H](CCC4=CC(=O)CC[C@@]43C)[C@@H]1CC[C@@H]2C(=O)CO", "values": [{"measurement": "activity change, negative = inhibition", "setting": "[3]", "result": "inconclusive: 5.7%"}]}
